# Test results from the supplement of paper PMC4604168 (melanoma cell lines).
# The list shows a part of the results. Most values come without repeats; read them as rough.
# Test system: UACC257
# Assay: cell count relative to DMSO control; melanoma cells; higher = more viable cells
# Conditions: library dose: standard library concentration; 72 h
# 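Note: cells treated in 1,536-well plates, then fixed and DAPI-stained, with nuclei counted from automated high-throughput microscope images.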
row,SMILES,cell count
1,"CC1(C)CCC(c2ccc(Cl)cc2)=C(CN2CCN(c3ccc(C(=O)NS(=O)(=O)c4ccc(N[C@H](CCN5CCOCC5)CSc5ccccc5)c(S(=O)(=O)C(F)(F)F)c4)cc3)CC2)C1 + O=C(Nc1cccc(Cl)c1)Nc1ncc(CCNc2ncnc3ccsc23)s1 [SNS314] (first compound 2 µM, partner dose 0.004 µM)",33%
2,"CC1(C)CCC(c2ccc(Cl)cc2)=C(CN2CCN(c3ccc(C(=O)NS(=O)(=O)c4ccc(N[C@H](CCN5CCOCC5)CSc5ccccc5)c(S(=O)(=O)C(F)(F)F)c4)cc3)CC2)C1 + Oc1nc(-c2ccc(C(F)(F)F)cc2)nc2c1CSCC2 [XAV939] (first compound 2 µM, partner dose 10 µM)",29.4%
3,"O=C(/C=C/c1cccnc1)NCCCCC1CCN(C(=O)c2ccccc2)CC1 + O=C(O)C(=O)Nc1sc2c(c1C(=O)O)CCNC2 [TCS401] (first compound 0.05 µM, partner dose 8.33333 µM)",85%
4,"O=C(/C=C/c1cccnc1)NCCCCC1CCN(C(=O)c2ccccc2)CC1 + O=C(Nc1ccccc1)c1cc([N+](=O)[O-])ccc1Cl [GW9662] (first compound 0.05 µM, partner dose 10 µM)",83.3%
5,"CC1(C)CCC(c2ccc(Cl)cc2)=C(CN2CCN(c3ccc(C(=O)NS(=O)(=O)c4ccc(N[C@H](CCN5CCOCC5)CSc5ccccc5)c(S(=O)(=O)C(F)(F)F)c4)cc3)CC2)C1 + N#Cc1c(O)c2c(-c3ccc(-c4ccccc4O)cc3)csc2[nH]c1=O [A769662] (first compound 2 µM, partner dose 10 µM)",30.2%
6,"CC1(C)CCC(c2ccc(Cl)cc2)=C(CN2CCN(c3ccc(C(=O)NS(=O)(=O)c4ccc(N[C@H](CCN5CCOCC5)CSc5ccccc5)c(S(=O)(=O)C(F)(F)F)c4)cc3)CC2)C1 + COc1cc2ncnc(Nc3ccc(Oc4ccccc4)cc3)c2cc1OC [SrcI1] (first compound 2 µM, partner dose 10 µM)",23.5%
7,"O=C(/C=C/c1cccnc1)NCCCCC1CCN(C(=O)c2ccccc2)CC1 + N#Cc1c(O)c2c(-c3ccc(-c4ccccc4O)cc3)csc2[nH]c1=O [A769662] (first compound 0.05 µM, partner dose 10 µM)",107%
8,"CC1(C)CCC(c2ccc(Cl)cc2)=C(CN2CCN(c3ccc(C(=O)NS(=O)(=O)c4ccc(N[C@H](CCN5CCOCC5)CSc5ccccc5)c(S(=O)(=O)C(F)(F)F)c4)cc3)CC2)C1 + CCCCCCCCc1ccc(CCC(N)(CO)CO)cc1 [fingolimod] (first compound 2 µM, partner dose 10 µM)",39.8%
9,"CC1(C)CCC(c2ccc(Cl)cc2)=C(CN2CCN(c3ccc(C(=O)NS(=O)(=O)c4ccc(N[C@H](CCN5CCOCC5)CSc5ccccc5)c(S(=O)(=O)C(F)(F)F)c4)cc3)CC2)C1 + O=S(=O)(c1ccccc1)N(CC(F)(F)F)c1ccc(C(O)(C(F)(F)F)C(F)(F)F)cc1 [T0901317] (first compound 2 µM, partner dose 7 µM)",25.6%
10,"O=C(/C=C/c1cccnc1)NCCCCC1CCN(C(=O)c2ccccc2)CC1 + CC(C)CCN1c2nc(Nc3cc(F)c(O)c(F)c3)ncc2N(C)C(=O)C1C [BID1870] (first compound 0.05 µM, partner dose 1 µM)",89%
11,"O=C(/C=C/c1cccnc1)NCCCCC1CCN(C(=O)c2ccccc2)CC1 + Cc1cc([N+](=O)[O-])ccc1NS(=O)(=O)c1cc(Cl)ccc1Cl [FH535] (first compound 0.05 µM, partner dose 5 µM)",73.7%
12,"Cc1ccc(Nc2nccc(N(C)c3ccc4c(C)n(C)nc4c3)n2)cc1S(N)(=O)=O [Pazopanib] + O=C(Nc1ccccc1)c1cc([N+](=O)[O-])ccc1Cl [GW9662] (first compound 2 µM, partner dose 10 µM)",65.1%
13,"Cc1ccc(Nc2nccc(N(C)c3ccc4c(C)n(C)nc4c3)n2)cc1S(N)(=O)=O [Pazopanib] + COc1ccc(COc2ccc(Cc3cnc(N)nc3N)cc2OC)cc1 [GW2580] (first compound 2 µM, partner dose 5 µM)",77.7%

# Test system: UACC62
# Assay: as above
# Conditions: library dose: standard library concentration; 72 h
row,SMILES,cell count
1,"Cc1ccc(Nc2nccc(N(C)c3ccc4c(C)n(C)nc4c3)n2)cc1S(N)(=O)=O [Pazopanib] + CC(C)CCN1c2nc(Nc3cc(F)c(O)c(F)c3)ncc2N(C)C(=O)C1C [BID1870] (first compound 2 µM, partner dose 1 µM)",55.3%
2,"Cc1ccc(Nc2nccc(N(C)c3ccc4c(C)n(C)nc4c3)n2)cc1S(N)(=O)=O [Pazopanib] + CCc1ccc(CCOc2ccc(CC3SC(=O)NC3=O)cc2)nc1 [pioglitazone] (first compound 2 µM, partner dose 10 µM)",95.7%
3,"O=C(/C=C/c1cccnc1)NCCCCC1CCN(C(=O)c2ccccc2)CC1 + O=C1NC(=O)/C(=C/c2ccc(-c3ccc(F)cc3O)o2)S1 [AS252424] (first compound 0.05 µM, partner dose 5 µM)",103%
4,"O=C(/C=C/c1cccnc1)NCCCCC1CCN(C(=O)c2ccccc2)CC1 + COc1ccc2c(c1)CCC1C2CCC2(C)C(NCCCCCCN3C(=O)C=CC3=O)CCC12 [U73122] (first compound 0.05 µM, partner dose 2 µM)",47.7%
5,"O=C(/C=C/c1cccnc1)NCCCCC1CCN(C(=O)c2ccccc2)CC1 + CCN(CC)CCCCNc1ncc2cc(-c3cc(OC)cc(OC)c3)c(NC(=O)NC(C)(C)C)nc2n1 [PD173074] (first compound 0.05 µM, partner dose 0.5 µM)",74.5%
6,"CC1(C)CCC(c2ccc(Cl)cc2)=C(CN2CCN(c3ccc(C(=O)NS(=O)(=O)c4ccc(N[C@H](CCN5CCOCC5)CSc5ccccc5)c(S(=O)(=O)C(F)(F)F)c4)cc3)CC2)C1 + O=C1NC(=O)/C(=C/c2ccc(-c3ccc(F)cc3O)o2)S1 [AS252424] (first compound 2 µM, partner dose 5 µM)",73.2%
7,"Cc1ccc(Nc2nccc(N(C)c3ccc4c(C)n(C)nc4c3)n2)cc1S(N)(=O)=O [Pazopanib] + Oc1cc(-c2nc(-c3ccccc3)[nH]c2-c2ccncc2)ccc1Cl [L779450] (first compound 2 µM, partner dose 1 µM)",43.9%
8,"CC1(C)CCC(c2ccc(Cl)cc2)=C(CN2CCN(c3ccc(C(=O)NS(=O)(=O)c4ccc(N[C@H](CCN5CCOCC5)CSc5ccccc5)c(S(=O)(=O)C(F)(F)F)c4)cc3)CC2)C1 + COc1ccc2c(c1)CCC1C2CCC2(C)C(NCCCCCCN3C(=O)C=CC3=O)CCC12 [U73122] (first compound 2 µM, partner dose 2 µM)",53.5%
9,"Cc1ccc(Nc2nccc(N(C)c3ccc4c(C)n(C)nc4c3)n2)cc1S(N)(=O)=O [Pazopanib] + O=C1NC(=O)/C(=C/c2ccc(-c3ccc(F)cc3O)o2)S1 [AS252424] (first compound 2 µM, partner dose 5 µM)",83.5%
10,"O=C(/C=C/c1cccnc1)NCCCCC1CCN(C(=O)c2ccccc2)CC1 + O=c1cc(-c2cccc3c2Sc2ccccc2S3)oc(N2CCOCC2)c1 [KU55933] (first compound 0.05 µM, partner dose 5 µM)",88.6%
11,"Cc1ccc(Nc2nccc(N(C)c3ccc4c(C)n(C)nc4c3)n2)cc1S(N)(=O)=O [Pazopanib] + N#Cc1c(O)c2c(-c3ccc(-c4ccccc4O)cc3)csc2[nH]c1=O [A769662] (first compound 2 µM, partner dose 10 µM)",79.5%
12,"O=C(/C=C/c1cccnc1)NCCCCC1CCN(C(=O)c2ccccc2)CC1 + Oc1cc(-c2nc(-c3ccccc3)[nH]c2-c2ccncc2)ccc1Cl [L779450] (first compound 0.05 µM, partner dose 1 µM)",54.5%
13,"CC1(C)CCC(c2ccc(Cl)cc2)=C(CN2CCN(c3ccc(C(=O)NS(=O)(=O)c4ccc(N[C@H](CCN5CCOCC5)CSc5ccccc5)c(S(=O)(=O)C(F)(F)F)c4)cc3)CC2)C1 + O=C(Nc1ccccc1)c1cc([N+](=O)[O-])ccc1Cl [GW9662] (first compound 2 µM, partner dose 10 µM)",75.3%
14,"CC1(C)CCC(c2ccc(Cl)cc2)=C(CN2CCN(c3ccc(C(=O)NS(=O)(=O)c4ccc(N[C@H](CCN5CCOCC5)CSc5ccccc5)c(S(=O)(=O)C(F)(F)F)c4)cc3)CC2)C1 + Nc1nc(F)nc2c1ncn2[C@@H]1O[C@H](CO)[C@@H](O)[C@@H]1O [fludarabine] (first compound 2 µM, partner dose 1 µM)",68.5%
15,"CC1(C)CCC(c2ccc(Cl)cc2)=C(CN2CCN(c3ccc(C(=O)NS(=O)(=O)c4ccc(N[C@H](CCN5CCOCC5)CSc5ccccc5)c(S(=O)(=O)C(F)(F)F)c4)cc3)CC2)C1 + CC(C)CCN1c2nc(Nc3cc(F)c(O)c(F)c3)ncc2N(C)C(=O)C1C [BID1870] (first compound 2 µM, partner dose 1 µM)",42.4%
16,"Cc1ccc(Nc2nccc(N(C)c3ccc4c(C)n(C)nc4c3)n2)cc1S(N)(=O)=O [Pazopanib] + COc1ccc2c(c1)CCC1C2CCC2(C)C(NCCCCCCN3C(=O)C=CC3=O)CCC12 [U73122] (first compound 2 µM, partner dose 2 µM)",73.6%
17,"CC1(C)CCC(c2ccc(Cl)cc2)=C(CN2CCN(c3ccc(C(=O)NS(=O)(=O)c4ccc(N[C@H](CCN5CCOCC5)CSc5ccccc5)c(S(=O)(=O)C(F)(F)F)c4)cc3)CC2)C1 + COc1ccc(-c2ccc3c(N4CCOCC4)nc(N4C[C@@H](C)O[C@@H](C)C4)nc3n2)cc1CO [KU0063794] (first compound 2 µM, partner dose 0.1 µM)",65.2%
